Some of the results follow. Binding of human transcription factors and regulators to the viral nucleoprotein by AlphaScreen, crude cell-free proteins, amounts not normalised, one pass. Fold of the Venus control; higher = more signal. No active / inactive call. Single-pass screen; sequences are the whole Swiss-Prot entries looked up by name.
B1: DAP, P51397 (protein)
chain: MSSPPEGKLETKAGHPPAVKAGGMRIVQKHPHTGDTKEEKDKDDQEWESPSPPKPTVFISGVIARGDKDFPPAAAQVAHQKPHASMDKHPSPRTQHIQQPRK
B2: ZCCHC11, Q5TAX3 (protein)
chain: MEESKTLKSENHEPKKNVICEESKAVQVIGNQTLKARNDKSVKEIENSSPNRNSSKKNKQNDICIEKTEVKSCKVNAANLPGPKDLGLVLRDQSHCKAKKFPNSPVKAEKATISQAKSEKATSLQAKAEKSPKSPNSVKAEKASSYQMKSEKVPSSPAEAEKGPSLLLKDMRQKTELQQIGKKIPSSFTSVDKVNIEAVGGEKCALQNSPRSQKQQTCTDNTGDSDDSASGIEDVSDDLSKMKNDESNKENSSEMDYLENATVIDESALTPEQRLGLKQAEERLERDHIFRLEKRSPEYTNCRYLCKLCLIHIENIQGAHKHIKEKRHKKNILEKQEESELRSLPPPSPAHLAALSVAVIELAKEHGITDDDLRVRQEIVEEMSKVITTFLPECSLRLYGSSLTRFALKSSDVNIDIKFPPKMNHPDLLIKVLGILKKNVLYVDVESDFHAKVPVVVCRDRKSGLLCRVSAGNDMACLTTDLLTALGKIEPVFIPLVLAFRYWAKLCYIDSQTDGGIPSYCFALMVMFFLQQRKPPLLPCLLGSWIEGFDPKRMDDFQLKGIVEEKFVKWECNSSSATEKNSIAEENKAKADQPKDDTKKTETDNQSNAMKEKHGKSPLALETPNRVSLGQLWLELLKFYTLDFALEEYVICVRIQDILTRENKNWPKRRIAIEDPFSVKRNVARSLNSQLVYEYVVERFRAAYRYFACPQTKGGNKSTVDFKKREKGKISNKKPVKSNNMATNGCILLGETTEKINAEREQPVQCDEMDCTSQRCIIDNNNLLVNELDFADHGQDSSSLSTSKSSEIEPKLDKKQDDLAPSETCLKKELSQCNCIDLSKSPDPDKSTGTDCRSNLETESSHQSVCTDTSATSCNCKATEDASDLNDDDNLPTQELYYVFDKFILTSGKPPTIVCSICKKDGHSKNDCPEDFRKIDLKPLPPMTNRFREILDLVCKRCFDELSPPCSEQHNREQILIGLEKFIQKEYDEKARLCLFGSSKNGFGFRDSDLDICMTLEGHENAEKLNCKEIIENLAKILKRHPGLRNILPITTAKVPIVKFEHRRSGLEGDISLYNTLAQHNTRMLATYAAIDPRVQYLGYTMKVFAKRCDIGDASRGSLSSYAYILMVLYFLQQRKPPVIPVLQEIFDGKQIPQRMVDGWNAFFFDKTEELKKRLPSLGKNTESLGELWLGLLRFYTEEFDFKEYVISIRQKKLLTTFEKQWTSKCIAIEDPFDLNHNLGAGVSRKMTNFIMKAFINGRKLFGTPFYPLIGREAEYFFDSRVLTDGELAPNDRCCRVCGKIGHYMKDCPKRKSLLFRLKKKDSEEEKEGNEEEKDSRDVLDPRDLHDTRDFRDPRDLRCFICGDAGHVRRECPEVKLARQRNSSVAAAQLVRNLVNAQQVAGSAQQQGDQSIRTRQSSECSESPSYSPQPQPFPQNSSQSAAITQPSSQPGSQPKLGPPQQGAQPPHQVQMPLYNFPQSPPAQYSPMHNMGLLPMHPLQIPAPSWPIHGPVIHSAPGSAPSNIGLNDPSIIFAQPAARPVAIPNTSHDGHWPRTVAPNSLVNSGAVGNSEPGFRGLTPPIPWEHAPRPHFPLVPASWPYGLHQNFMHQGNARFQPNKPFYTQDRCATRRCRERCPHPPRGNVSE
B3: NR6A1, Q15406 (protein)
chain: MERDEPPPSGGGGGGGSAGFLEPPAALPPPPRNGFCQDELAELDPGTISVSDDRAEQRTCLICGDRATGLHYGIISCEGCKGFFKRSICNKRVYRCSRDKNCVMSRKQRNRCQYCRLLKCLQMGMNRKAIREDGMPGGRNKSIGPVQISEEEIERIMSGQEFEEEANHWSNHGDSDHSSPGNRASESNQPSPGSTLSSSRSVELNGFMAFREQYMGMSVPPHYQYIPHLFSYSGHSPLLPQQARSLDPQSYSLIHQLLSAEDLEPLGTPMLIEDGYAVTQAELFALLCRLADELLFRQIAWIKKLPFFCELSIKDYTCLLSSTWQELILLSSLTVYSKQIFGELADVTAKYSPSDEELHRFSDEGMEVIERLIYLYHKFHQLKVSNEEYACMKAINFLNQDIRGLTSASQLEQLNKRYWYICQDFTEYKYTHQPNRFPDLMMCLPEIRYIAGKMVNVPLEQLPLLFKVVLHSCKTSVGKE
B4: ZKSCAN4, Q969J2 (protein)
chain: MAREPRKNAALDAQSAEDQTGLLTVKVEKEEASALTAEVRAPCSPARGPERSRQRFRGFRYPEAAGPREALSRLRELCGQWLQPEMHSKEQILELLVLEQFLTILPGNLQSWVREQHPESGEEVVVLLEYLERQLDEPAPQVPVGDQGQELLCCKMALLTQTQGSQSSQCQPMKALFKHESLGSQPLHDRVLQVPGLAQGGCCREDAMVASRLTPGSQGLLKMEDVALTLTPGWTQLDSSQVNLYRDEKQENHSSLVSLGGEIQTKSRDLPPVKKLPEKEHGKICHLREDIAQIPTHAEAGEQEGRLQRKQKNAIGSRRHYCHECGKSFAQSSGLTKHRRIHTGEKPYECEDCGKTFIGSSALVIHQRVHTGEKPYECEECGKVFSHSSNLIKHQRTHTGEKPYECDDCGKTFSQSCSLLEHHKIHTGEKPYQCNMCGKAFRRNSHLLRHQRIHGDKNVQNPEHGESWESQGRTESQWENTEAPVSYKCNECERSFTRNRSLIEHQKIHTGEKPYQCDTCGKGFTRTSYLVQHQRSHVGKKTLSQ
B5: ZNF484, Q5JVG2 (protein)
chain: MTKSLESVSFKDVTVDFSRDEWQQLDLAQKSLYREVMLENYFNLISVGCQVPKPEVIFSLEQEEPCMLDGEIPSQSRPDGDIGFGPLQQRMSEEVSFQSEININLFTRDDPYSILEELWKDDEHTRKCGENQNKPLSRVVFINKKTLANDSIFEYKDIGEIVHVNTHLVSSRKRPHNCNSCGKNLEPIITLYNRNNATENSDKTIGDGDIFTHLNSHTEVTACECNQCGKPLHHKQALIQQQKIHTRESLYLFSDYVNVFSPKSHAFAHESICAEEKQHECHECEAVFTQKSQLDGSQRVYAGICTEYEKDFSLKSNRQKTPYEGNYYKCSDYGRAFIQKSDLFRCQRIHSGEKPYEYSECEKNLPQNSNLNIHKKIHTGGKHFECTECGKAFTRKSTLSMHQKIHTGEKPYVCTECGKAFIRKSHFITHERIHTGEKPYECSDCGKSFIKKSQLHVHQRIHTGENPFICSECGKVFTHKTNLIIHQKIHTGERPYICTVCGKAFTDRSNLIKHQKIHTGEKPYKCSDCGKSFTWKSRLRIHQKCHTGERHYECSECGKAFIQKSTLSMHQRIHRGEKPYVCTECGKAFFHKSHFITHERIHTGEKPYECSICGKSFTKKSQLHVHQQIHTGEKPYRCAECGKAFTDRSNLFTHQKIHTGEKPYKCSDCGKAFTRKSGLHIHQQSHTGERHYECSECGKAFARKSTLIMHQRIHTGEKPYICNECGKSFIQKSHLNRHRRIHTGEKPYECSDCGKSFIKKSQLHEHHRIHTGEKPYICAECGKAFTIRSNLIKHQKIHTKQKPYKCSDLGKALNWKPQLSMPQKSDNGEVECSMPQLWCGDSEGDQGQLSSI
B6: ZNF280B, Q86YH2 (protein)
chain: MEQSCEEEKEPEPQKNIQETKQVDDEDAELIFVGVEHVNEDAELIFVGVTSNSKPVVSNILNRVTPGSWSRRKKYDHLRKDTARKLQPKSHETVTSEAVTVLPASQLESRSTDSPIIIEPLSKPDYRNSSPQVVPNNSSELPSPLITFTDSLHHPVSTALSVGGINESPRVSKQLSTFEVNSINPKRAKLRDGIIEGNSSASFPSDTFHTMNTQQSTPSNNVHTSLSHVQNGAPFPAAFPKDNIHFKPINTNLDRANELAKTDILSLTSQNKTFDPKKENPIVLLSDFYYGQHKGEGQPEQKTHTTFKCLSCVKVLKNVKFMNHVKHHLEFEKQRNDSWENHTTCQHCHRQFPTPFQLQCHIENVHTAQEPSTVCKICELSFETDQVLLQHMKDHHKPGEMPYVCQVCHYRSSVFADVETHFRTCHENTKNLLCPFCLKIFKTATPYMCHYRGHWGKSAHQCSKCRLQFLTFKEKMEHKTQCHQMFKKPKQLEGLPPETKVTIQVSLEPLQPGSVDVASITVSTSDSEPSLPRSKSKISKKSH
B7: OVOL1, O14753 (protein)
chain: MPRAFLVKKPCVSTCKRNWSELPDEERGEIYVPVSLGFCPPQPYREPEPSVAEPPSCPLALNMSLRDSSYSMAPGPCVVAQLPSEDMGHLTDPQSRDHGFLRTKMKVTLGDSPSGDLFTCRVCQKAFTYQRMLNRHMKCHNDVKRHLCTYCGKGFNDTFDLKRHVRTHTGVRPYKCSLCDKAFTQRCSLESHLKKIHGVQQKYAYKERRAKLYVCEECGCTSESQEGHVLHLKEHHPDSPLLRKTSKKVAVALQNTVTSLLQGSPHL
B8: SUFU, Q9UMX1 (protein)
chain: MAELRPSGAPGPTAPPAPGPTAPPAFASLFPPGLHAIYGECRRLYPDQPNPLQVTAIVKYWLGGPDPLDYVSMYRNVGSPSANIPEHWHYISFGLSDLYGDNRVHEFTGTDGPSGFGFELTFRLKRETGESAPPTWPAELMQGLARYVFQSENTFCSGDHVSWHSPLDNSESRIQHMLLTEDPQMQPVQTPFGVVTFLQIVGVCTEELHSAQQWNGQGILELLRTVPIAGGPWLITDMRRGETIFEIDPHLQERVDKGIETDGSNLSGVSAKCAWDDLSRPPEDDEDSRSICIGTQPRRLSGKDTEQIRETLRRGLEINSKPVLPPINPQRQNGLAHDRAPSRKDSLESDSSTAIIPHELIRTRQLESVHLKFNQESGALIPLCLRGRLLHGRHFTYKSITGDMAITFVSTGVEGAFATEEHPYAAHGPWLQILLTEEFVEKMLEDLEDLTSPEEFKLPKEYSWPEKKLKVSILPDVVFDSPLH

Target: nucleoprotein N of Crimean-Congo hemorrhagic fever virus
Experiment: AlphaScreen luminescence signal relative to Venus negative control (fold); higher = stronger binding to CCHFV N
Procedure: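 AlphaScreen binding of cell-free made, FLAG-GST-tagged human transcription factors and regulators (crude translation products) to biotinylated N protein; signal as fold of the FLAG-GST-Venus control. One pass.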

| Binder | AlphaScreen luminescence signal |
| --- | --- |
| B1 | 1.53 |
| B2 | 1.12 |
| B3 | 2.47 |
| B4 | 2.05 |
| B5 | 3.3 |
| B6 | 2.37 |
| B7 | 2 |
| B8 | 2.23 |

Reference: the supplement of paper PMC12423691
